Results taken from PubChem BioAssay AID463173 (ICCB-Longwood Screening Facility, Harvard Medical School, 2010).
Out of some 52,000 compounds screened, about 4,300 (8.3%) were called active. Cut-off read from the data, not from the text of the source: active = survival mostly below about 52% (no sharp cut-off); inactive = mostly above about 56%. The list shows a part of the results.

These compounds were tested on DeltatarO mutant (assay: S. aureus survival, RN4220 and DeltatarO strains – OD600, teichoic acid synthesis inhibitors, primary screen (AID 463173)). Settings: S. aureus RN4220 wild type/DeltatarO growth, OD600, 18 h, hits give low values, screened at 18.75 µg/mL (by protocol).

| SMILES | survival |
| --- | --- |
| Oc1cccc(C(O)CNc2c3c(nc4cc(-c5cccc(F)c5)nn24)CCC3)c1 (centres undefined) | inactive: 102% |
| O=C(CN1CCC(C(=O)c2ccccc2)CC1)NCc1cccs1 | inactive: 89% |
| Cc1c(C)c2c(cc(C)c3c(-c4ccc(Br)cc4)coc32)oc1=O | inactive: 66% |
| CCOC(=O)c1cccc(NC(=O)CCn2c(=O)oc3ccccc32)c1 | active: 39% |
| Cc1ccc(CSc2nnc([C@@H](N)C(C)C)o2)cc1 | inactive: 79% |
| CC(=O)c1ccc(NC(=O)Cn2c(=O)cc(C)c3c(C)nn(-c4cccc(F)c4)c32)cc1 | inactive: 81% |
| COc1ccc(C)cc1NC(=O)C(=O)NCCc1sc(-c2cccc(C)c2)nc1C | inactive: 89% |
| Cc1ccccc1C(=O)Nc1ccc(S(=O)(=O)N2CCC(c3nc4ccccc4s3)CC2)cc1 | active: 40% |
| O=C(O)CSc1nc2ccccc2c(=O)n1-c1ccccc1 | inactive: 78% |
| COc1ccc(NC(=O)c2c(NCc3cccc(F)c3)sc3c2CCC3)c(OC)c1 | inactive: 85% |
| CC1CC(C)CN(C(=O)Cn2cnc3c2c(=O)n(C)c(=O)n3C)C1 (centres undefined) | inactive: 107% |
| COc1cccc2sc(N(Cc3cccnc3)C(=O)c3ccco3)nc12 | inactive: 94% |
| Cc1nn(C)c(C)c1S(=O)(=O)N(CC(=O)NCCc1ccc(Cl)cc1)c1ccc(C(C)C)cc1 | inactive: 75% |
| Cc1cc(C)n(C(=O)c2ccccc2C(=O)O)n1 | inactive: 95% |
| CCCCOc1ccc(C2=NC(c3cccs3)=Nc3ccc(OC)cc3N2)cc1 | inactive: 88% |
| COc1ccc(OC)c(CNC(=O)c2c(C)oc3ncn(CC(C)C)c(=O)c23)c1 | inactive: 89% |
| COc1ccc(OC)c(CNS(=O)(=O)c2ccc3c(c2)oc(=O)n3C)c1 | inactive: 90% |
| COc1ccc(S(=O)(=O)N(CC(=O)N2CCc3ccccc3C2)c2ccc(C)cc2)cc1 | inactive: 52% |
| Cc1cccc2nc(Cn3c(=O)n(-c4ccc(Cl)cc4)c(=O)c4c5c(sc43)CCC5)cc(=O)n12 | inactive: 155% |
| CCOc1ccc(C(=O)Nc2cccc(C(=O)OCc3cc(=O)n4cc(C)sc4n3)c2)cc1 | inactive: 102% |
| COc1ccc(Br)cc1CNC(=O)c1cc(=O)[nH]c2ccc(S(=O)(=O)N3CCCCC3C)cc12 (centres undefined) | inactive: 82% |
| CCn1cc(C(=O)NCCc2ccccc2)c(=O)c2cc(S(=O)(=O)N3CCCCCC3)ccc21 | inactive: 66% |
| Cc1nn(C(C)C(=O)N2CCN(c3ccc(F)cc3)CC2)c(=O)c2c1sc1ccccc12 (centres undefined) | inactive: 105% |
| CCOC(=O)c1ccc(NC(=O)CCCc2nc(-c3cc(OC)c(OC)c(OC)c3)no2)cc1 | active: 44% |
